# Over roughly 33,000 sequences, “E-score (-0.5 to 0.5)” has its median near -0.035; the highest 2% begin near 0.35. The list shows a part of the results.
# Biological target: T1, Pdr3 (UniProt P33200)
# T1 sequence: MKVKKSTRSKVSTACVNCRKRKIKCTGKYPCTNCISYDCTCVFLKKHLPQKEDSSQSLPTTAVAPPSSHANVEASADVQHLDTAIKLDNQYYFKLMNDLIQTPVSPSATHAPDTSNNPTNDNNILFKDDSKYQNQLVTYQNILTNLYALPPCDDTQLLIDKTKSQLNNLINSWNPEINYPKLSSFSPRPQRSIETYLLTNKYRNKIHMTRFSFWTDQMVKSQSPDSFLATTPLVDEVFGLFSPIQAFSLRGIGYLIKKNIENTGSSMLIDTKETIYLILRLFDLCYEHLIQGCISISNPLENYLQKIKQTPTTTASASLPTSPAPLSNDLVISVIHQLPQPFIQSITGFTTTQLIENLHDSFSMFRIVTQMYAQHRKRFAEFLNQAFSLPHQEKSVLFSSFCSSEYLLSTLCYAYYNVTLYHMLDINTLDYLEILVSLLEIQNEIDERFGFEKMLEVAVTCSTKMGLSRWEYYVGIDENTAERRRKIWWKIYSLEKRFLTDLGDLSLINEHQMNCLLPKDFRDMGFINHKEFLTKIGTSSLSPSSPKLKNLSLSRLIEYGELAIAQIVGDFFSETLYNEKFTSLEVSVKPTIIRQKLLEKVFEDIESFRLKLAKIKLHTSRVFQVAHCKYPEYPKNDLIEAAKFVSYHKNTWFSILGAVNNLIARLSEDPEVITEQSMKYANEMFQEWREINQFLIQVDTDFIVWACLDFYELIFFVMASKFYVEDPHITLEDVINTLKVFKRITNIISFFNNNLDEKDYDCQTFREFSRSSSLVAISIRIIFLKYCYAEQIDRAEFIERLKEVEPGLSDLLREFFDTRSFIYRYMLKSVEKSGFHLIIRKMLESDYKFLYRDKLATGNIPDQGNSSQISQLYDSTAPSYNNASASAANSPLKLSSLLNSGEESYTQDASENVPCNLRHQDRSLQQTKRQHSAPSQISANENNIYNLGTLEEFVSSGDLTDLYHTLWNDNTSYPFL
# Assay: PBM E-score (8-mer binding enrichment) (E-score (-0.5 to 0.5)); higher = stronger / more preferred TF binding; most listed sequences are background and not binding sites
# Details: protein concentration: 200 nM; construct: GST-full length
# In short: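 Bound GST-tagged yeast transcription factors, applied at about 100-200 nM to double-stranded universal all-10-mer Agilent arrays, were detected with fluorescent anti-GST. Scans were normalised with masliner. A modified Wilcoxon-Mann-Whitney statistic, the E-score, was assigned to each ungapped eight-base word pooled with its reverse complement by the Universal PBM Analysis Suite.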
row,Sequence,PBM E-score
1,GTAGTCTA,-0.11
2,CTACTAAG,-0.0243
3,ATCCCGAA,0.308
4,TAAATTGA,-0.0504
5,AATGTTCT,-0.287
6,AGAGCATG,-0.107
7,AATCGTTG,0.0459
8,AGAGGGAA,-0.226
9,CCGCAACC,0.232
10,AAGTCATG,-0.0527
11,CACTGAGA,-0.209
12,AAATGAGA,-0.183
13,ACACATTC,-0.00297
14,CGGCAGAG,0.0006
15,CGTGTCAG,0.145
16,AAATTCCT,0.0116
17,ATAGTTCG,0.193
18,CTGTGAAA,0.0103
19,CAGGCTAG,-0.315
20,ACGCACGA,-0.15
21,CATTGTAG,0.00167
22,CTTGTTCC,0.207
23,GAACACTA,-0.0215
24,ATTGTTTA,-0.162
25,AGGTATTG,-0.103

row,Sequence,PBM E-score
1,ACGACCTC,0.183
2,CCTCCAGC,-0.261
3,ATATACAT,-0.0165
4,GAAACTAC,0.0827
5,CGCTACGA,0.0564
6,CGTGCCCC,-0.232
7,CACAGGAG,-0.091
8,CTCGAACC,-0.0403
9,CTGTGTGC,-0.141
10,TAACAGTA,-0.171
11,ATAGTAAC,-0.101
12,GGACGCAA,0.113
13,ATGCGTCC,0.0189
14,ACAGTCAA,-0.022
15,ACGTTACT,-0.191
16,CATTGTCG,-0.0495
17,AACACAAA,-0.078
18,TCAAAGCA,-0.0887
19,GCGAGCTA,-0.0689
20,AGAGTAAA,-0.181
21,GCTTGCTA,-0.144
22,AGTTGAGA,-0.166
23,GGCGCCAA,0.108
24,CGTCAGTC,0.0108
25,AAGTTTCA,0.0173

row,Sequence,PBM E-score
1,CGCACACA,-0.0409
2,GGCGGCCA,-0.0702
3,TATACTAA,-0.101
4,ATATTCGG,0.106
5,ATTTACGC,-0.033
6,AGGCCCAG,-0.196
7,GATAGCCA,0.035
8,CATGCTAC,-0.0835
9,ACTATATA,0.0653
10,CCCGACCC,0.126
11,ACCGAGTC,-0.168
12,ACCGACAG,0.0513
13,CTGATAAA,0.0563
14,GCACAGCA,-0.107
15,AACAACGT,-0.175
16,GCACAGAA,-0.0107
17,AGACGATC,-0.267
18,ACTGGGAC,-0.0292
19,CCGGAGTA,0.367
20,CATACCAA,-0.00359
21,CTGCGTTC,0.125
22,ACGTGCCA,-0.154
23,ATCGTCTG,-0.0834
24,GGACCGTA,-0.136
25,CCGAGCTC,0.217

row,Sequence,PBM E-score
1,AGCAACAT,-0.117
2,CCAGTGCA,-0.22
3,AGAAGATC,-0.00552
4,CCCCGGGA,0.417
5,ACTACCCA,-0.328
6,CCTGCGGC,-0.0139
7,AAACCACC,-0.0783
8,AAAGAATG,-0.0818
9,GACCTGGA,-0.219
10,AACCTCCT,-0.183
11,GCCCCACC,0.202
12,AGTGGCCC,0.137
13,CAATCCGA,0.271
14,AGCCTAAC,-0.162
15,AGGTCATA,-0.118
16,GGACTAAC,-0.0477
17,CAGTCGAG,-0.147
18,ACATAAAT,-0.0382
19,CCTCGTCC,-0.116
20,CCTCTGAA,-0.00096
21,GGTATGAC,-0.0226
22,ATATGTTC,0.223
23,CCGTGCTC,0.243
24,GGCCCAGA,-0.149
25,AAGCCGAT,0.188

row,Sequence,PBM E-score
1,TTACAAAA,-0.0386
2,ATAATCAC,0.035
3,ACCGGCGC,0.228
4,ATGTTGTG,-0.0732
5,CATTCTTA,-0.00508
6,AGGAACTG,-0.208
7,ACCGCCAA,-0.0762
8,TATTCCAA,-0.091
9,TCGACCAA,-0.16
10,GTGGCGTA,-0.0399
11,GCGTAGAC,-0.222
12,CTGTTACC,-0.056
13,TGAGATAA,0.116
14,CATGCTGG,-0.249
15,CTCTGATC,-0.116
16,ATCCAAGA,-0.0502
17,CGCCAAAA,0.125
18,ACTTCGAC,-0.0852
19,GACGAGCA,-0.137
20,ACGACAGA,-0.0457
21,GTGGAATA,0.122
22,ACTCCGCG,0.397
23,GGACCGGA,0.382
24,AGGACCGG,0.133
25,GAATATCA,0.13

row,Sequence,PBM E-score
1,CGTGAAGA,-0.0942
2,CTGGACGC,-0.118
3,ACCAAAAC,-0.0262
4,ACCGGGAG,0.144
5,ATGTCTCC,0.169
6,TAACACTA,-0.0344
7,ATGTGGAC,0.0146
8,CTACTTGA,-0.238
9,GCTCTAGA,-0.146
10,ATGGACGA,0.151
11,GGCAGCCA,0.0184
12,CCTTCTTA,-0.185
13,CAGATCCC,0.0667
14,CACAACCG,0.243
15,ATAAGATC,-0.0639
16,AACGGTCA,0.146
17,GCAGGGCC,-0.0226
18,CGACTTTC,0.118
19,GCACAGTA,-0.0122
20,CATGGGAC,-0.0439
21,CGCAAGAA,0.152
22,CCGAGACG,0.238
23,AACTGCCG,0.183
24,GCAAGAAA,-0.0345
25,ATCGTATC,-0.0863

row,Sequence,PBM E-score
1,AATACCGG,0.29
2,AGTCCTTG,-0.159
3,GATGGCAA,0.152
4,GGACGGAC,0.293
5,TAAAGCTA,-0.417
6,CGCCGCTA,0.274
7,AGTGCCCA,-0.0112
8,CCTATAGC,-0.262
9,ACGTCATA,-0.0705
10,AACTGCCA,-0.121
11,AGCGCATA,-0.028
12,CGCTCAGA,-0.0536
13,CCTTCGGA,0.332
14,AGCATACG,-0.0567
15,ATCCCACG,0.0216
16,CTTAGGTC,-0.0368
17,CTCACTAA,-0.121
18,CTAATATC,0.145
19,GCCAGATA,-0.0384
20,ACCATCAA,-0.216
21,CCGTCAGC,0.207
22,CCCTCATC,-0.137
23,CATGCGAA,0.0697
24,CTGTAAAG,-0.197
25,CAGTCCGA,0.304

row,Sequence,PBM E-score
1,CCGTGGAG,0.382
2,CCTGCCCA,-0.132
3,ATTGTGAG,0.0298
4,AATAGACG,0.12
5,CCTCGCAG,-0.00057
6,ACGCCAAT,-0.0351
7,GAAATATA,0.137
8,CAAGAGAG,-0.0941
9,CGCCTGTC,-0.18
10,CAGTCAGG,-0.307
11,ATCGTCAG,-0.169
12,CTACTGCA,-0.278
13,ATCACTGA,-0.185
14,CAGGCCGG,0.0992
15,ACGAAATA,0.0568
16,GCCGTACC,0.134
17,TAGATACA,-0.129
18,AAGGCGTC,-0.0192
19,AACCACAG,-0.207
20,GTCGAGGA,-0.184
21,ACCATGCC,0.0793
22,AGCGATGC,-0.142
23,GCGTGGCC,-0.096
24,ATTGGTAA,-0.0591
25,ACAGATGA,-0.264

row,Sequence,PBM E-score
1,AACACCCT,-0.0521
2,ACGGGGAA,0.204
3,AAACCAGA,-0.139
4,CTTCATCC,-0.00929
5,AGAATCAT,-0.239
6,CTCGAGCA,0.0481
7,CGGCCTTA,0.14
8,ACAAGTGC,-0.173
9,ATCTCTGA,-0.143
10,CCTAACCG,-0.0117
11,CAAAACGG,0.184
12,GCTCTTCC,0.171
13,AAACCGAC,0.119
14,ACTTGAAG,-0.218
15,ATTCATCG,0.0666
16,CGTGCCGC,0.187
17,ACACTGAG,-0.0845
18,TCATAAAA,0.0033
19,CCGCGGGC,0.484

# From the supplement of paper PMC3334620
